From publication PMC4336329 (PLoS ONE, 2015)
Screen size: about 310,000 compounds; about 14,000 (4.5%) showed an effect of 50% or more. Effects have a minus sign here. This is one part of the list. Where a SMILES comes first, the peptide text is derived from it. The star is where a group is joined. Boc = CC(C)(C)OC(=O)*; Bn = c1ccc(C*)cc1

Molecular target: human ether-à-go-go-related gene (hERG) potassium channel (human, UniProt Q12809)
Assay: primary screen, population patch clamp on CHO cells stably expressing hERG
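Further: peak tail current of the secondary pulse compared with the same well before compound.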

human ether-à-go-go-related gene (hERG) potassium channel, sequence (Q12809 whole entry, looked up): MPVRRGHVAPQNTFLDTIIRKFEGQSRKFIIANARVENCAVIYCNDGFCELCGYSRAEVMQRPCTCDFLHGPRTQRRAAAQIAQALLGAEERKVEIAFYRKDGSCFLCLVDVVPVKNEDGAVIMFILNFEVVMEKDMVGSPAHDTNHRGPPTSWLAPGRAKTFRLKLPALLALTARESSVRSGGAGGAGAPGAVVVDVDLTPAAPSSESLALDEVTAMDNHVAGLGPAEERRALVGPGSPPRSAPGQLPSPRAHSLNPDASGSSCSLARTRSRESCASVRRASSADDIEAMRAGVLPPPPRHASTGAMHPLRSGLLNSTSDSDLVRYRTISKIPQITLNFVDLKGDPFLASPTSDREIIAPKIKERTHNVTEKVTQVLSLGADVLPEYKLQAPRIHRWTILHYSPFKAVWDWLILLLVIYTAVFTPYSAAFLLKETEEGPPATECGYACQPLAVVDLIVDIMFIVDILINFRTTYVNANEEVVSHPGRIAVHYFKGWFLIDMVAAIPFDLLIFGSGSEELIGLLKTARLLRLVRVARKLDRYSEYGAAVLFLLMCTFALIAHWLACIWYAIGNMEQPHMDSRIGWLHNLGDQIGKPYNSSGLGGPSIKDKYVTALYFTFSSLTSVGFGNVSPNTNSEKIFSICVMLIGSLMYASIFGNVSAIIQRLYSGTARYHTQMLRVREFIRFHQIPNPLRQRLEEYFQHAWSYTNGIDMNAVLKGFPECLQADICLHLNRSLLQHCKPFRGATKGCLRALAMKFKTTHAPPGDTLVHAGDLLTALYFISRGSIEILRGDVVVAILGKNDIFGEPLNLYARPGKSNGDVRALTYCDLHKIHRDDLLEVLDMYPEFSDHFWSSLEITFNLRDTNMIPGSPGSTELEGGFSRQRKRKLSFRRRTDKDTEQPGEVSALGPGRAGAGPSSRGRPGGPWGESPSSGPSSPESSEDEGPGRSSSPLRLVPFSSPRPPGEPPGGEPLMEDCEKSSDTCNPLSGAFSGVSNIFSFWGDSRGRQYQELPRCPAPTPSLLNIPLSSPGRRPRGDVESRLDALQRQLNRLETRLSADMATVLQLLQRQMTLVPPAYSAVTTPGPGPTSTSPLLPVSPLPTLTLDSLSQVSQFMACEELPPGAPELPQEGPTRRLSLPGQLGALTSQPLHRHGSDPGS

Structure (SMILES) | hERG current change (%, negative = inhibition) at 10uM
CC1Cc2ccccc2N1C(=O)c1nn(C)cc1Br (stereo not shown) | 11.1%
O=C(CN1CCN(c2ccccc2O)CC1)NC(=O)NC1CCCC1 | -0.609%
Cc1ccc(-c2c(C(=O)NNC(=S)NCC3CCCO3)csc2C)cc1 (stereo not shown) | 32.2%
N/C(Cc1ccc([N+](=O)[O-])cc1)=N\OC(=O)CC1CCCCC1 | -68.5%
CC(C)CC1NC(=O)c2ccccc2-n2c1nc1ccc(F)cc1c2=O (stereo not shown) | 14.7%
CC(C)(C)N(Cc1ccccc1)C(=O)CN1C(=O)NC2(CCCCCC2)C1=O | -5.48%
CC1CCc2sc(C(=O)N3CCN(c4ncccn4)CC3)cc2C1 (stereo not shown) | -11.5%
COc1cccc(NC(=O)C/C(C)=N/NC(=O)C2CCCCC2)c1 | 8.65%
CC(=O)O[C@H]1C[C@@]2(O)[C@@H](OC(=O)c3ccccc3)C3[C@@](C)([C@@H](O)C[C@H]4OC[C@@]34OC(C)=O)[C@@H](O)[C@H](OC(C)=O)C(=C1C)C2(C)C (stereo partly shown) | 2.26%
O=c1cc(CSc2nc3ccccc3[nH]2)c2ccccc2[nH]1 | -6.39%
Cc1cc(C)n2nc(C(=O)OCCOc3ccc(Br)cc3)nc2n1 | -55.3%
COc1ccccc1-c1cc2nc(C)cc(C)n2n1 | 12.3%
O=c1c(-c2ccco2)[n+]([O-])c2ccccc2n1OCc1ccccc1 | 2.1%
O=C(O)C(=O)O.OC(COC(c1ccc(F)cc1)c1ccc(F)cc1)CN1CCCC(C(F)(F)F)C1 (stereo not shown) | 10.8%
CC(NC(=O)c1ccc(F)cc1)C(c1cccs1)N1CCN(C)CC1 (stereo not shown) | 2.37%
COc1ccccc1NS(=O)(=O)c1cc(C(=O)NCC(c2ccco2)N(C)C)ccc1C (stereo not shown) | -7.74%
O=C(NC1CCCN(c2ccc(C(F)(F)F)cn2)C1)c1ccnc(Cl)c1 (stereo not shown) | -55.5%
COc1cccc2sc(NNC(=O)c3nc4ccccc4s3)nc12 | 6.33%
Cc1cccc(CC2S/C(=N/c3ccccn3)NC2=O)c1 (stereo not shown) | 6.95%
O=C(NCc1cccnc1)c1sc2ccccc2c1Cl | -28.9%
O=C(O)c1ccc(C(=O)C(=O)c2ccccc2)cc1 | -4.15%
Cc1ccc(S(=O)(=O)Nc2cnc3ccccc3c2)cc1 | 17.3%

Structure (SMILES) | hERG current change (%, negative = inhibition) at 10uM
CCOC(=O)C1=C(C)NC2=C(C(=O)CCC2)C1c1cccnc1 (stereo not shown) | -13.7%
COCCCNC(=O)c1cc(Sc2ccc(F)cc2)nc2ccccc12 | -26.9%
Cc1ccccc1C(=O)N1CCN(c2ncnc3c2cnn3-c2ccccc2)CC1 | -9.76%
CC(=O)c1cc2c(cc1NC(=O)Cn1nc(-c3ccc(F)cc3)ccc1=O)OCO2 | -37.3%
N#CC1(NC(=O)CN2c3cccc4cccc(c34)S2(=O)=O)CCCCC1 | 14.9%
COc1ccc(-c2ccc3nnc(SCC(=O)NCC4CCCO4)n3n2)cc1 (stereo not shown) | -9.98%
COc1ccccc1C(=O)NNC(=O)Cc1ccccc1 | 14.4%
S=C1N(c2ccccc2)CN(C2CCCCC2)CN1c1ccccc1 | 19.3%
O=C(Cc1ccc(F)cc1)NCCc1cnc[nH]1 | 21.8%
COc1ccc2[nH]c(=O)c(CN(CCO)S(=O)(=O)c3ccc(C)cc3)cc2c1 | -9.52%
CN1/C(=C\C(=O)c2cccc([N+](=O)[O-])c2)Sc2ccccc21 | 10.8%
Cc1cccc(S(=O)(=O)c2c(N)n(Cc3ccco3)c3nc4ccccc4nc23)c1 | 12.3%
O=C(CN1CCN(c2ccccc2F)CC1)NC(=O)NCc1ccccc1 | -0.456%
CC(=O)C(C)Oc1ccc2c3c(c(=O)oc2c1)CCCC3 (stereo not shown) | -12.8%
O=C1C2C3C=CC(C3=C(c3ccccc3)c3ccccc3)C2C(=O)N1CCO (stereo not shown) | -39.2%
COC(=O)CSc1nnnn1-c1cccc2ccccc12 | -4.4%
COc1ccc(CN=C2NN=C(c3ccccc3)CS2)cc1 | 4.33%
Cc1nn(CCO)c2ncc(C(=O)c3cc(Cl)ccc3O)cc12 | 15.3%
C[C@@H]1[C@H]2[C@@H](O[C@@H]3O[C@H](CO)[C@@H](O)[C@H](O)[C@H]3O)OC=C(C(=O)O)[C@H]2C[C@@H]1O | 16.7%
c1nc2nc3c(c(N4CCNCC4)n2n1)CCCC3 | 4.81%
CN1C(=O)/C(=C/c2ccccc2OCc2cccc(F)c2)NC1=S | 11%
CCn1cc(Cl)c(C(=O)Nc2nc3ccccc3n2CCN2CCCCC2)n1 | -65.5%

Structure (SMILES) | hERG current change (%, negative = inhibition) at 10uM
CCOc1ccc(N(CC(=O)NC2CCCC2)C(=O)CCCC(=O)Nc2ccccn2)cc1 | -10.8%
O=C(Nc1ccccc1)c1cnc2n(c1=O)CCS2 | -14.6%
N=c1c2c(ncn1CCCO)Oc1c(ccc3ccccc13)C2c1ccccc1 (stereo not shown) | -70.4%
O=C(NCc1ccco1)/C(=C\c1cccnc1)NC(=O)c1ccccc1F | -51.1%
CC(C)CC(NC(=O)C(CC(C)C)NC(=O)C(Cc1ccc(OCc2ccccc2)cc1)NC(=O)OC(C)(C)C)C(N)=O (stereo not drawn) (Boc-Tyr(Bn)-Leu-Leu-NH2; configuration not given here) | 13.3%
CCn1c(SCc2nc(-c3ccccc3)no2)nnc1-c1ccco1 | -36.3%
CCCCOc1c(Br)cc(CNCCCN2CCOCC2)cc1OC.Cl | -35%
Cc1csc(NC(=O)C2C3C=CC(C3)C2C(=O)O)n1 (stereo not shown) | -6.11%
COC(=O)C(NC(=O)c1ccco1)(Nc1ccc(Br)cn1)C(F)(F)F (stereo not shown) | -14.7%
CC(=O)NCc1ccc(C(=O)CCl)s1 | -7.15%
CC(=O)Nc1cccc(NC(=O)C2CCCN2C(=O)Nc2ccc(C)cc2)c1 (stereo not shown) | 16.8%
CCOC(=O)Cc1csc(NC(=O)COc2ccc(N(C)S(=O)(=O)c3cccs3)cc2)n1 | -36.9%
Cc1c(C(=O)Nc2cccc([N+](=O)[O-])c2)sc2ncn(CC(=O)N3CCOCC3)c(=O)c12 | -7.66%
COc1cc(Cl)ccc1OCc1cc(C(=O)NCc2cc(C(C)C)no2)no1 | -18.1%
Nc1nn2cc(-c3ccccc3)nc2c2ccccc12 | -45%
COc1cc2cnc(-c3ccccc3)c(-c3cc(OC)c(OC)c(OC)c3)c2cc1OC | -0.323%
Cc1ccc2[nH]c(CNC(=O)C3CCCCC3)cc2c1 | 14.7%
CC(C)C[C@H](NC(=O)c1nc[nH]c1C(=O)NCCCCCNC(=O)OC(C)(C)C)C(=O)OCc1ccccc1 | 9.86%
CN(Cc1ccccc1)C(=O)c1c[nH]c2ccc(S(=O)(=O)N3CCOCC3)cc2c1=O | 3.03%
CCOC(=O)C1C(=O)NC(N2CCN(Cc3ccccc3)CC2)=NC1c1ccco1 (stereo not shown) | 6.47%
Cc1ccc(C2=NOC(C)(c3nnc(-c4ccc(F)cc4)o3)C2)cc1 (stereo not shown) | -15%
Cc1ccc(NC(=O)NNC(=O)COc2ccc([N+](=O)[O-])cc2)cc1C | 10.7%

Structure (SMILES) | hERG current change (%, negative = inhibition) at 10uM
O=C(O)c1ccc(/C=N/Nc2nc3ccccc3[nH]2)cc1 | 13.9%
Cn1cnc2c1c(=O)n(CC(O)CO)c(=O)n2C (stereo not shown) | 23%
FC(F)(F)c1nc(N2CCCC2)ncc1-c1nnnn1-c1ccccc1 | -1.8%
CCn1c(CSCc2ccc(F)cc2)nnc1SCC(=O)N1CCN(c2ccccc2)CC1 | -58.6%
O=C(NCC1CC1)c1cc([N+](=O)[O-])cc([N+](=O)[O-])c1 | 0.0222%
CCOc1ccc(S(=O)(=O)n2ccnc2)c2ccccc12 | 11.4%
O=C(Nc1cccc(-n2cccn2)c1)C1CCCN(Cc2ccccc2F)C1 (stereo not shown) | -30.4%
C/C(CC(=O)Nc1ccccn1)=N\NC(=O)c1cccc(C)c1 | -1.25%
CCOC(=O)C1CCCN(C(=O)c2ccc(OC)c([N+](=O)[O-])c2)C1 (stereo not shown) | -4.74%
CC(C)(C)[C@H]1C=C(C(=O)N2CCN(Cc3ccc4c(c3)OCO4)CC2)O[C@@H](OCc2ccc(CO)cc2)C1 | -33.7%
O=[N+]([O-])c1ccccc1Nc1cccnc1 | 6.81%
COc1ccc(S(=O)(=O)n2ccnc2C)c(C)c1C | 27%
Cc1ccc(S(=O)(=O)N(C)CCCC(=O)NC(C)(C)CO)cc1 | 14.8%
Cc1cc(SCC(=O)c2ccc(Cl)cc2)nc(=O)[nH]1 | 7.32%
O=C(Nc1ccc(Cl)c(Cl)c1)Nc1nc(-c2ccccc2)cs1 | 0.795%
COCCn1c(N)c(N(Cc2ccccc2)C(=O)c2oc3ccccc3c2C)c(=O)[nH]c1=O | 6.15%
O=C(NCCC(=O)N1CCN(c2cccc(Cl)c2)CC1)c1ccc(Br)cc1 | -55%
O=C(Cn1ccc2ccccc21)Nc1ccc2c(c1)OCO2 | 15.2%
CCCCn1c(-c2ccccc2)cnc1SCC(=O)NCCc1ccc(OC)c(OC)c1.Cl | -21.5%
